No constants are given. Whether binding was seen depends on the method and setting. For part of these data: Binding seen in cells or lysates may run through a third protein. Some entries that bind do so weakly or less than the wild type.
Assays:
[1] = target: His6-Tir^35-77 (enteropathogenic Escherichia coli (EPEC)) (UniProt B7UM99); assay: pull-down
[2] = target: His6-Tir^23-80 (enteropathogenic Escherichia coli (EPEC)) (UniProt B7UM99); assay: pull-down
[3] = target: His6-Tir^32-73 (enteropathogenic Escherichia coli (EPEC)) (UniProt B7UM99); assay: pull-down
[4] = target: T18 fused to Tir^490-550 (enteropathogenic Escherichia coli (EPEC)) (UniProt B7UM99); assay: two-hybrid
[5] = target: T18 fused to Tir^81-550 (enteropathogenic Escherichia coli (EPEC)) (UniProt B7UM99); assay: two-hybrid
[6] = target: T18 fused to Tir^23-80 (enteropathogenic Escherichia coli (EPEC)) (UniProt B7UM99); assay: two-hybrid
[7] = target: T18 fused to Tir^23-550 (enteropathogenic Escherichia coli (EPEC)) (UniProt B7UM99); assay: two-hybrid
[8] = target: His6-Tir^37-73 (enteropathogenic Escherichia coli (EPEC)) (UniProt B7UM99); assay: pull-down
[9] = target: His6-Tir^37-80 (enteropathogenic Escherichia coli (EPEC)) (UniProt B7UM99); assay: pull-down
[10] = target: His6-Tir^32-80 (enteropathogenic Escherichia coli (EPEC)) (UniProt B7UM99); assay: pull-down
[11] = target: Tir (BACTH fusions of the Tir-Tir interaction) (enteropathogenic Escherichia coli (EPEC)) (UniProt B7UM99); assay: two-hybrid
[12] = target: His6-Tir^81-550 (enteropathogenic Escherichia coli (EPEC)) (UniProt B7UM99); assay: pull-down
[13] = target: His6-Tir^490-550 (enteropathogenic Escherichia coli (EPEC)) (UniProt B7UM99); assay: pull-down
[14] = target: His6-Tir^23-550 (enteropathogenic Escherichia coli (EPEC)) (UniProt B7UM99); assay: pull-down

Chains of the proteins cited; added tags and fusions are not shown. Lines headed by an entry give the natural chain unless they say otherwise; changes in a name come on top. Residues count along the entry.
UniProt B7UM99: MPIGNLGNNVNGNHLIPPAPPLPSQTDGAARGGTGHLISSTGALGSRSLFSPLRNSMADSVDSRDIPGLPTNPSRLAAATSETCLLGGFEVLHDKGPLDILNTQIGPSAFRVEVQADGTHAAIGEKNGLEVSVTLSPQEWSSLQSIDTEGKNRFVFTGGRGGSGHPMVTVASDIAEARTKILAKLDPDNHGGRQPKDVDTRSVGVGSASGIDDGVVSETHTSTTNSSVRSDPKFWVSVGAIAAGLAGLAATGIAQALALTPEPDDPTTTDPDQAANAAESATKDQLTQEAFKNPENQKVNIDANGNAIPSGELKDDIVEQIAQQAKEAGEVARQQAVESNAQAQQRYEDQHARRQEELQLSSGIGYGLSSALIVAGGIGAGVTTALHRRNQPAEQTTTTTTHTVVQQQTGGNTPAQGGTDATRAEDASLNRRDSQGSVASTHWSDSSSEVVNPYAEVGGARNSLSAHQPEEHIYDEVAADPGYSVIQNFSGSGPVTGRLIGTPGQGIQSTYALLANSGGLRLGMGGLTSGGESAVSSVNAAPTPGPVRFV
His6-Tir^23-550 (enteropathogenic Escherichia coli (EPEC)): residues 23-550 of B7UM99
His6-Tir^23-80 (enteropathogenic Escherichia coli (EPEC)): residues 23-80 of B7UM99
His6-Tir^32-80 (enteropathogenic Escherichia coli (EPEC)): residues 32-80 of B7UM99
His6-Tir^32-73 (enteropathogenic Escherichia coli (EPEC)): residues 32-73 of B7UM99
His6-Tir^35-77 (enteropathogenic Escherichia coli (EPEC)): residues 35-77 of B7UM99
His6-Tir^37-80 (enteropathogenic Escherichia coli (EPEC)): residues 37-80 of B7UM99
His6-Tir^37-73 (enteropathogenic Escherichia coli (EPEC)): residues 37-73 of B7UM99
His6-Tir^81-550 (enteropathogenic Escherichia coli (EPEC)): residues 81-550 of B7UM99
His6-Tir^490-550 (enteropathogenic Escherichia coli (EPEC)): residues 490-550 of B7UM99
UniProt P21244: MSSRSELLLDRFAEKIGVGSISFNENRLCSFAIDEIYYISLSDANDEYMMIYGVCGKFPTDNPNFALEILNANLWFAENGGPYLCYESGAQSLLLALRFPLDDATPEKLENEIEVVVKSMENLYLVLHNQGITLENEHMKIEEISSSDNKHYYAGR

## CesT^138 (no tag, co-expressed and co-purified with His6-Tir peptides) (from UniProt P21244 2-138) (domain or fragment)
[1]
  binding: binds
[2]
  binding: binds
[3]
  binding: binds

## CesT fused to T25 (from UniProt P21244 1-156)
[4]
  binding: binds
[5]
  binding: binds
[6]
  binding: binds
[7]
  binding: binds

## CesT^138-FLAG (from UniProt P21244 2-138) (domain or fragment)
[1]
  binding: binds
[2]
  binding: binds
[3]
  binding: binds
[8]
  binding: no binding
[9]
  binding: no binding
[10]
  binding: binds

## CesT^138 fused to T25 (from UniProt P21244 2-138) (domain or fragment)
[4]
  binding: binds
[5]
  binding: binds
[6]
  binding: binds
[7]
  binding: binds

## Tir (BACTH fusions of the Tir-Tir interaction) (from UniProt B7UM99 1-550)
[11]
  binding: binds

## CesT-FLAG (from UniProt P21244 1-156)
[12]
  binding: binds
[1]
  binding: binds
[2]
  binding: binds
[3]
  binding: no binding
[8]
  binding: no binding
[9]
  binding: no binding
[10]
  binding: binds
[13]
  binding: binds
[14]
  binding: binds

Source: PMC6114900, “Molecular basis for CesT recognition of type III secretion effectors in enteropathogenic Escherichia coli” (PLoS Pathogens, 2018)
